Test results reported in PubChem BioAssay AID488969 (Vanderbilt High Throughput Screening Facility, 2010).
Whole data set: some 110,000 compounds, median “z-score” near -0.1, cut for the highest 2% near 2. This is one part of the list. The source made the active and inactive calls.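 Rule for the calls: active = z-score in the third read window above 3 or below -3; inactive = the rest.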

What follows are molecules tested against Metabotropic glutamate receptor 8 (Rattus norvegicus) (UniProt P70579) (assay: rat mGluR8 modulators via GIRK flux, primary screen, cell-based, thallium flux, HTS (AID 488969)). Conditions: HEK293 rat mGluR8, GIRK (G protein-gated inwardly rectifying potassium channel) thallium flux, FluoZin2; at 10 µM; stronger effect = higher value; submaximal glutamate (EC20) added with thallium.
Sequence of UniProt P70579 (P70579 whole entry, looked up): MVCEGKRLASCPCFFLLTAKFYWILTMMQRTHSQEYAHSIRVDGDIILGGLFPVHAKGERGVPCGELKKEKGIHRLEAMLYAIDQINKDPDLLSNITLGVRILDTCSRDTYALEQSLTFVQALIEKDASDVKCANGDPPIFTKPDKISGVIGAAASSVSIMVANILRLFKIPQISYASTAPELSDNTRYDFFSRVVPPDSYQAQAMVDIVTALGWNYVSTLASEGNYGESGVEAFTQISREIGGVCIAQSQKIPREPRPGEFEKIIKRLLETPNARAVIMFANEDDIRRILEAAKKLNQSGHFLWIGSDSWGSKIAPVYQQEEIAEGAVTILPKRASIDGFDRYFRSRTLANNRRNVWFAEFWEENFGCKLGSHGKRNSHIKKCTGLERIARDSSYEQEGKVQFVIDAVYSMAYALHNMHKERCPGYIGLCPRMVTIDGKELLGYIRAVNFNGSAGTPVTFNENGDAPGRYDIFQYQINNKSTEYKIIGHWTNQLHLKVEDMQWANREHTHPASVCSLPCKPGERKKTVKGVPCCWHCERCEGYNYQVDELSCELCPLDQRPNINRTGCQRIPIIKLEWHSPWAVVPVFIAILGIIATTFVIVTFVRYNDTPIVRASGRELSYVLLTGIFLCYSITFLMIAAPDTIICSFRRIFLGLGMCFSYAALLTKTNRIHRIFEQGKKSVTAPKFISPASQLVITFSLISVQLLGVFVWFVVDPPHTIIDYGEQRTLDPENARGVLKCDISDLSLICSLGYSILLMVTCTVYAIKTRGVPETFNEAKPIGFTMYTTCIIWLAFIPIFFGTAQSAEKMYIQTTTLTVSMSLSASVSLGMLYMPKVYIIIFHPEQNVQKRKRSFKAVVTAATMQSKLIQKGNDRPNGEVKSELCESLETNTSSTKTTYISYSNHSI

SMILES | z-score
CCC(=O)Nc1ccc(C(=O)Nc2cc(C)on2)cc1 | -0.13
COC(=O)COc1ccc2c(-c3cccc([N+](=O)[O-])c3)cc(=O)oc2c1 | -0.448
CCCCCCCC(=O)Nc1ccc(C(=O)N/N=C/c2cccc([N+](=O)[O-])c2)cc1 | -0.161
N#CCC(=O)N1CCn2c1nc1ccccc12 | 0.13
COc1ccccc1NC(=O)C1CCCN(S(=O)(=O)c2cccc3nsnc23)C1 (configuration not stated) | 0.0406
COc1cc(/C=N/NC(=O)Cc2cccs2)c([N+](=O)[O-])cc1OC | -0.078
COc1ccc(CNC(=O)c2cnc(C)cn2)cc1 | -0.00169
CCOC(=O)c1c(NC(=O)CSc2nnc(-c3ccncc3)n2Cc2ccco2)sc(C)c1C | -2.47
O=C(NC(=S)N1CCN(c2ccc(Cl)cc2[N+](=O)[O-])CC1)c1cccs1 | active: 9.46
Cc1ccccc1Nc1nc(-c2ccccc2)c(C(=O)Nc2cccnc2)s1 | 0.177
COc1ccc(CNC(=O)c2csc(Cc3ccc(Cl)cc3)n2)cc1 | -0.195
O=C(Nc1ccc(N2CCCCC2)cc1)c1cccnc1Cl | -0.137
Cc1ccc(-c2nnc(-c3cccc(NC(=O)c4cccs4)c3)o2)cc1 | -0.196
Cc1cc2ccccc2n1CCNC(=O)c1ccccc1 | 0.104
CCCC(=O)Nc1nc2nc(-c3ccccc3)cc(-c3ccccc3)n2n1 | -1.64
CC(c1ccco1)N(C(=O)C12CC3CC(CC(C)(C3)C1)C2)c1ccccn1 (configuration not stated) | 0.0449
O=C1c2ccccc2C(=O)N1CCC1=CCCCC1 | 0.634
Cc1ccc2cc(C#N)c(N3CCCC3)nc2c1C | -0.233
Cc1noc(C)c1C(=O)N1CCN(C(=O)c2sc3cc(Cl)ccc3c2Cl)CC1 | -0.676
C=CCN(CC=C)S(=O)(=O)c1ccc2nc(NC(=O)C(C)C)sc2c1 | -0.419
CCc1ccc(-c2cc(C(=O)NCc3ccco3)c3ccccc3n2)s1 | -0.222
N#CCCS(=O)(=O)c1ccc(N)cc1 | 0.046
C=CCNC(=S)NNC(=O)c1ccc(OC(C)C)cc1 | -0.659
CCn1c(CNc2ccc(Cl)cc2)nnc1SCc1ccc(C)cc1 | 0.0857

SMILES | z-score
CCCNC(=O)NC(=O)CSc1nc2cc(C(=O)OC)ccc2c(=O)n1-c1ccccc1 | -0.0375
COc1ccc(C(c2c(O)cc(C)oc2=O)c2c(O)cc(C)oc2=O)cc1 | -0.45
COc1ccc(C(C)NC(=O)c2ccc([N+](=O)[O-])cc2)cc1OC (configuration not stated) | -0.249
Cc1cc(N2CCN(c3ccccn3)CC2)n2nc(C)nc2n1 | 0.267
CS(=O)(=O)Nc1ccccc1C(=O)NCc1ccco1 | -0.0873
COC(=O)c1c(NC(C)=O)sc(Cc2ccccc2)c1C | -0.395
Cc1ccc(S(=O)(=O)NC(C)(C)CSc2nncn2C)cc1 | -0.274
COc1ccccc1N1CCN(Cc2cccs2)CC1 | -0.108
N#C/C(=C\c1ccc(Br)s1)C(=O)N1CCN(c2ccccc2)CC1 | -0.178
Cc1ccccc1Cn1c(Cc2ccccc2)nc2ccccc21 | 0.18
Cc1nnc(N(C(=O)c2cnccn2)c2ccccc2)s1 | -0.0539
CN(C)C=C1C(=O)c2ccccc2C1=O | -0.178
O=C(COC(=O)CNC(=O)c1ccccc1Cl)Nc1ncc(C(F)(F)F)cc1Cl | -0.573
CCc1ccccc1NC(=O)N[C@H](C(=O)O)C(C)C | 0.0781
COc1ccc(-n2c(C)cc(/C=C3\SC(=S)N(Cc4ccco4)C3=O)c2C)cc1 | -0.306
COc1ccccc1NS(=O)(=O)c1ccc(C)c(C(N)=O)c1 | -0.0928
COc1ccc(C2C(C(=O)N3CCN(c4ccccc4)CC3)c3ccccc3C(=O)N2C)cc1 (configuration not stated) | -0.145
COc1ccc(CCC(N)=O)cc1OC | 0.00699
Cc1cc(Cl)ccc1N=C1N=C(N)c2ccccc21 | -1.75
O=C(CSc1c(Cl)cccc1Cl)N1CCC(c2nc3ccccc3s2)CC1 | -0.0471
CCSc1cnn(-c2ccccc2)c(=O)c1SCC | -0.503
O=C(CSc1ncn[nH]1)Nc1nc(-c2ccccc2)ns1 | -0.512
COc1cc(C(=O)N2CC(C)OC(C)C2)c([N+](=O)[O-])cc1OC (configuration not stated) | 0.377
CSc1ccccc1C(=O)NC1CC2CCC1C2 (configuration not stated) | 0.00508

SMILES | z-score
CCOc1ccc(CC(=O)Nc2c(C(N)=O)oc3ccccc23)cc1OCC | 0.355
CCOC(=O)CC(=O)CSCC(=O)Nc1ccc(C)cc1 | 0.131
COc1ccc(C2CC(=O)N3CN(c4ccccc4F)CSC3=C2C#N)cc1OC (configuration not stated) | -0.0688
CCOC(=O)c1c(NC(=S)NC(=O)c2cnn(CC)c2)sc2c1CCC(C)C2 (configuration not stated) | 0.488
COC(=O)Nc1c(C)nn(Cc2ccccc2C)c1C | 1.05
Cc1ccc(-c2cc(-c3cccc(F)c3)n[nH]2)c(O)c1 | -0.16
CCOC(=O)N1CCC(NC(=O)C2CCCN(C(=O)c3cc4sccc4n3C)C2)CC1 (configuration not stated) | -0.19
CC(Oc1ccc(Cl)cc1Cl)C(=O)NCCCCc1ccccc1 (configuration not stated) | -0.648
O=C(NCCN1CCOCC1)c1cccc(S(=O)(=O)N2CCCCCC2)c1 | -0.077
CC1CCCC(C)N1C(=O)CN1C(=O)C(C)(C)Oc2ccc(C(=O)NC3CCCC3)cc21 (configuration not stated) | -0.774
CCS(=O)(=O)n1nc(-c2ccco2)nc1SC | -0.348
C=CCc1cccc2cc(C(=O)Nc3ccc(F)cc3)c(=O)oc12 | -0.8
CC(C)[C@H](N)c1nnc(SCc2ccc(Cl)cc2)o1 | 0.207
O=C(Nc1nc(-c2ccccc2)cs1)C1CCCCN1S(=O)(=O)c1ccccc1 (configuration not stated) | 1.16
CN(C)S(=O)(=O)c1ccc(N2CCOCC2)c(C(=O)O)c1 | 0.216
Cn1nc(C(F)(F)F)c(C(=O)Nc2ccc(F)cc2F)c1Oc1cccc(Cl)c1 | -0.375
Cc1cc(C)nc(NS(=O)(=O)c2ccc(NC(=O)c3ccc(S(=O)(=O)N4CC(C)OC(C)C4)cc3)cc2)n1 (configuration not stated) | -0.605
CCOC(=O)/C(C#N)=C\c1c(OCC)n(CC)c2ccccc12 | -0.745
O=C(NCC1CCCO1)C1CCCN(Cc2cnn(-c3ccccc3)c2-n2cccc2)C1 (configuration not stated) | -0.0478
CCOC(=O)CNC(=O)c1c(C)nn(-c2ccccc2)c1Cl | -0.3
Cc1ccc2oc(=O)c3cnn(CC(=O)NC4CCC(C)CC4)c3c2c1 (configuration not stated) | -2.45
O=C(Nc1ccc(Oc2ccccc2)cc1)c1ccco1 | 0.941
CCCCOc1ccc(C(=O)N2CCCC2)cc1 | -0.35
C=CCc1ccc(OCCOCCNCCCC)c(OC)c1 | 1.2
